Experimental findings from patent US20220267443A1 (published 2022) are described below.

Like-named read-outs stand apart in the source and are kept apart here.

Assay [1] concerns the target T1, recombinant human CTLA-4-Fc (R&D Systems, #7268-CT) (UniProt P16410 36-161).
A further assay has as its target Human CTLA-4 monomer. Nature of the assay: SPR. (In general: SPR reads the build-up and loss of mass on a sensor chip optically.)
In assay [2] the target is Cynomolgus CTLA-4 monomer. Nature of the assay: SPR.
Assay [3] concerns the target T1, recombinant human CTLA-4-Fc (R&D …). Nature of the assay: SPR.
The target in assay [4] is recombinant mouse CTLA-4-Fc (UniProt P09793 36-161). Nature of the assay: SPR.
The target of assay [5] is recombinant cynomolgus CTLA-4-Fc (Sino Biological, #90213-C02H) (UniProt P16410 36-161). Briefly: SPR.
Assay [6] addresses human CTLA-4 expressed on cells (Jurkat cells over-expressing human CTLA-4); activated or PHA-stimulated … (UniProt P16410 36-223). Nature of the assay: flow cytometry. Background: A flow cytometer gives signals particle by particle.

Sequence of UniProt P09793 (P09793 36-161): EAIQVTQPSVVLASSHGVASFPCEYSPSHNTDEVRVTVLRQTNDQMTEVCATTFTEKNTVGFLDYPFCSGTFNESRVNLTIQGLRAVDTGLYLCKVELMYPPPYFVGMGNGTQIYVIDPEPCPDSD

B1: AGEN1884 (antibody)
heavy: EVQLVESGGGLVKPGGSLRLSCAASGFTFSSYSMNWVRQAPGKGLEWVSSISSSSSYIYYADSVKGRFTISRDNAKNSLYLQMNSLRAEDTAVYYCARVGLMGPFDIWGQGTMVTVSSASTKGPSVFPLAPSSKSTSGGTAALGCLVKDYFPEPVTVSWNSGALTSGVHTFPAVLQSSGLYSLSSVVTVPSSSLGTQTYICNVNHKPSNTKVDKRV[sequence of human IgG1 Fc omitted]
light: EIVLTQSPGTLSLSPGERATLSCRASQSVSRYLGWYQQKPGQAPRLLIYGASTRATGIPDRFSGSGSGTDFTLTITRLEPEDFAVYYCQQYGSSPWTFGQGTKVEIKRSVAAPSVFIFPPSDEQLKSGTASVVCLLNNFYPREAKVQWKVDNALQSGNSQESVTEQDSKDSTYSLSSTLTLSKADYEKHKVYACEVTHQGLSSPVTKSFNRGEC
For orientation: Kd means the equilibrium constant for the complex coming apart. On to B1, for which the Kd in assay [1] was found to be 0.6 nM; with Human CTLA-4 monomer it was 0.8 nM; in assay [2], 1.6 nM; in assay [3] it was 0.6 nM; in assay [4] it was 9.9 nM; in assay [5], 6.2 nM.

B2: AGEN1884w (antibody)
heavy: EVQLVESGGGLVKPGGSLRLSCAASGFTFSSYSMNWVRQAPGKGLEWVSSISSSSSYIYYADSVKGRFTISRDNAKNSLYLQMNSLRAEDTAVYYCARVGLMGPFDIWGQGTMVTVSSASTKGPSVFPLAPSSKSTSGGTAALGCLVKDYFPEPVTVSWNSGALTSGVHTFPAVLQSSGLYSLSSVVTVPSSSLGTQTYICNVNHKPSNTKVDKRV[sequence of human IgG1 Fc omitted]
light: EIVLTQSPGTLSLSPGERATLSCRASQSVSRYLGWYQQKPGQAPRLLIYGASTRATGIPDRFSGSGSGTDFTLTITRLEPEDFAVYYCQQYGSSPWTFGQGTKVEIKRTVAAPSVFIFPPSDEQLKSGTASVVCLLNNFYPREAKVQWKVDNALQSGNSQESVTEQDSKDSTYSLSSTLTLSKADYEKHKVYACEVTHQGLSSPVTKSFNRGEC
As a reminder, the EC50 is the concentration giving half of the maximal effect. Low values mean a more potent agent, high ones a less potent agent. In assay [6], B2 came in with an EC50 of 0.031 µg/mL.
